From PubChem BioAssay (Tox21)
Where “and” joins values, the source holds several entries; their conditions need not be identical. Equal values may be shown once. The shares of active, inactive and inconclusive entries below differ from those in the screen. For some assays here: Potencies of inconclusive entries are doubtful fits and often do not repeat. Some compounds were tested as several samples or in several runs, with calls that do not always agree. Calls of active or inactive are those of the source. Unless noted, calls follow the shape of the dose curve; as a rule, active = well fitted curve in the direction sought with a large enough effect in the repeat runs; inconclusive = weak or mixed curves; inactive = no such curve, though single readings can be large; an effect the other way counts as inactive or inconclusive.

Experiments:
[1] = qHTS assay to identify small molecule antagonists of the TGF-beta/Smad signaling pathway (AID 1346924; active = well fitted inhibition curve with a large enough effect in the signal ratio in the repeat runs, not every such curve was filed as active; inconclusive = weak or mixed curves; the % refers to the signal ratio); conditions: SBE-bla HEK293T, TGF-beta/Smad reporter, beta-lactamase ratio
Summary of the method: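 SBE-bla HEK 293T cells were plated overnight, then received compound in DMSO plus TGF-beta1 (added as a 0.25 ng/mL solution) and were incubated 5 h at 37 C. Beta-lactamase reporter activity was read after 2 h at room temperature with LiveBLAzer B/G FRET substrate (ex 405, em 460/530 nm).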

[2] = target: Cytochrome P450 2D6 (Homo sapiens) (UniProt P10635); assay: Cytochrome P450 Family 2 Subfamily D Member 6 (CYP2D6) small molecule antagonists: luciferase reporter qHTS assay (AID 1671196); conditions: P450-Glo CYP2D6 enzyme assay, luciferin luminescence, 1 h; series mostly up to 115 µM; also: nearly all actives have a fitted effect of over 50% in size
Chain of UniProt P10635 (P10635 whole entry, looked up): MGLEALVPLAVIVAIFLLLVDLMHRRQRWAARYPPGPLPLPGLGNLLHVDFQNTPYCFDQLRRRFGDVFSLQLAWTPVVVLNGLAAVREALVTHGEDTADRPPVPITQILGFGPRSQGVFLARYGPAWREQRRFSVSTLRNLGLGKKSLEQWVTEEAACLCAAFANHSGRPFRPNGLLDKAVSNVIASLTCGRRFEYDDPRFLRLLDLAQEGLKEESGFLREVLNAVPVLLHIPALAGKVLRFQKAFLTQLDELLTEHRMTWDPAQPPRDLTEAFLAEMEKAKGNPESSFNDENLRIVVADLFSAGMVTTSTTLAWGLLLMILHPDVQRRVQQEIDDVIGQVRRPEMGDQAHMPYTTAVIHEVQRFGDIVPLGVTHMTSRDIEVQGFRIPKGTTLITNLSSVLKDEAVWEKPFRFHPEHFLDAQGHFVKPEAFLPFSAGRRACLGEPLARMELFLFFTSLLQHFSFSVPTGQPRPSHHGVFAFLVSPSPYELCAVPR
Summary of the method: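 Read-out is luminescence from luciferin formed by CYP2D6 turnover of a proluciferin substrate, recorded as relative luminescence units. Reactions ran 1 h at room temperature after NADPH regeneration solution was added.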

[3] = target: Cytochrome P450 1A2 (Homo sapiens) (UniProt P05177); assay: Cytochrome P450 Family 1 Subfamily A Member 2 (CYP1A2) small molecule antagonists: luciferase reporter qHTS assay (AID 1671199); conditions: P450-Glo CYP1A2 enzyme, luciferin luminescence, 1 h; series mostly up to 115 µM; also: nearly all actives have a fitted effect of over 50% in size
Chain of UniProt P05177 (P05177 whole entry, looked up): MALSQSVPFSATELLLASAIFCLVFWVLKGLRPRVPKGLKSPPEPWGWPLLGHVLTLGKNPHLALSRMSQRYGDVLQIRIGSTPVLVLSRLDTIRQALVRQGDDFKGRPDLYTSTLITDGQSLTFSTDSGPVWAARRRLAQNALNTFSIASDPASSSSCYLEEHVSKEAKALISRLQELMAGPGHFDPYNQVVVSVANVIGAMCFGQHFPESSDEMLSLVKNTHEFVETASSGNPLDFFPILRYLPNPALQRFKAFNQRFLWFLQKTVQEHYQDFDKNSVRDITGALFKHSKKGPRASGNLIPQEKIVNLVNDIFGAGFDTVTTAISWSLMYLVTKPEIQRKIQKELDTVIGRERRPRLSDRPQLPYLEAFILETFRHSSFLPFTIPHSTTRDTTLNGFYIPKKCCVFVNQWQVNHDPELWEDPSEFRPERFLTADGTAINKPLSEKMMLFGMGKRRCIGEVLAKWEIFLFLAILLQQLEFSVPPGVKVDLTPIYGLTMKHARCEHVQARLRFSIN
Summary of the method: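 P450-Glo CYP1A2, 1536-well qHTS: enzyme/proluciferin substrate + cpd (DMSO), 10 min RT; NADPH regen, 1 h RT; detection reagent, 20 min; luminescence, RLU.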

[4] = Human pregnane X receptor (PXR) small molecule agonists, qHTS cell viability counter screen (AID 1346977); conditions: PXR-Luc HepG2 viability, CellTiter-Fluor, 24 h; series mostly up to 92.4 µM; also: nearly all actives have a fitted effect of over 50% in size
Summary of the method: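 PXR-Luc HepG2 cells (2,000/well, 5% charcoal-stripped FBS) preincubated 5 hr, then exposed to compounds 24 hr at 37 C. Viability read in the same wells by CellTiter-Fluor fluorescence, reagent added at 23 hr, 1 hr incubation.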

[5] = Caspase-3/7 induction in HepG2 cells by small molecules, qHTS cell viability counter screen (AID 1346981); conditions: CellTiter-Fluor fluorescence, 17 h; series mostly up to 92.4 µM; also: nearly all actives have a fitted effect of over 30% in size
Summary of the method: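 HepG2, WT, 2,000 cells/well; 5 hr pre-incubation 37 C/5% CO2; compound pin-transferred from DMSO; 16 hr exposure; CellTiter-Fluor, 1 hr; fluorescence read.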

[6] = Caspase-3/7 induction in CHO-K1 cells by small molecules, qHTS assay (AID 1346980); conditions: CHO-K1 caspase-3/7 induction, Caspase-Glo luminescence, 17 h; series mostly up to 92.4 µM; also: nearly all actives have a fitted effect of over 15% in size; as to caspase-3/7 activation: % is scaled to controls: 0 for no effect and ±100 for the full control effect
Summary of the method: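 Wild-type cells were seeded at 1,500 per well and settled 5 hr at 37 C, 5% CO2, then exposed to DMSO-dissolved compounds for 17 hr. Caspase-Glo 3/7 reagent was added, and luminescence was read after 30min at room temperature.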

[7] = target: Cytochrome P450 2C19 (Homo sapiens) (UniProt P33261); assay: Cytochrome P450 Family 2 Subfamily C Member 19 (CYP2C19) small molecule antagonists: luciferase reporter qHTS assay (AID 1671197); conditions: P450-Glo CYP2C19 enzyme, luciferin luminescence, 1 h; series mostly up to 115 µM; also: nearly all actives have a fitted effect of over 65% in size
Chain of UniProt P33261 (P33261 whole entry, looked up): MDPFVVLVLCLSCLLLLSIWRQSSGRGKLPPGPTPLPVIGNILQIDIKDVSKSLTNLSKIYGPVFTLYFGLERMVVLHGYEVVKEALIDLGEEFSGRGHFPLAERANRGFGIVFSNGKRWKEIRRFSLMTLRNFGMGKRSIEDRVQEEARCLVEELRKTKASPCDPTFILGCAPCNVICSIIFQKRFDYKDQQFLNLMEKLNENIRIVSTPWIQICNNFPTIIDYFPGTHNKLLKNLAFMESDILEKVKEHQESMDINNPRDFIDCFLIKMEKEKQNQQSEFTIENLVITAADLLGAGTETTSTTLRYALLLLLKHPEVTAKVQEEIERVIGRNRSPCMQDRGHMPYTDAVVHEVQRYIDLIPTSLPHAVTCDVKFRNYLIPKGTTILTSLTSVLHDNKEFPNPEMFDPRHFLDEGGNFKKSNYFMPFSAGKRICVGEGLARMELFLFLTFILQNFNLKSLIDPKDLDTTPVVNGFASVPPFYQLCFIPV
Summary of the method: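 Compounds were tested on CYP2C19 activity via proluciferin conversion to luciferin. The 37C, 1 h reaction followed NADPH addition; detection reagent stopped it.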

[8] = target: Cytochrome P450 2C9 (Homo sapiens) (UniProt P11712); assay: Cytochrome P450 Family 2 Subfamily C Member 9 (CYP2C9) small molecule antagonists: luciferase reporter qHTS assay (AID 1671198); conditions: P450-Glo CYP2C9 enzyme assay, luciferin luminescence; series mostly up to 115 µM; also: nearly all actives have a fitted effect of over 50% in size
Chain of UniProt P11712 (P11712 whole entry, looked up): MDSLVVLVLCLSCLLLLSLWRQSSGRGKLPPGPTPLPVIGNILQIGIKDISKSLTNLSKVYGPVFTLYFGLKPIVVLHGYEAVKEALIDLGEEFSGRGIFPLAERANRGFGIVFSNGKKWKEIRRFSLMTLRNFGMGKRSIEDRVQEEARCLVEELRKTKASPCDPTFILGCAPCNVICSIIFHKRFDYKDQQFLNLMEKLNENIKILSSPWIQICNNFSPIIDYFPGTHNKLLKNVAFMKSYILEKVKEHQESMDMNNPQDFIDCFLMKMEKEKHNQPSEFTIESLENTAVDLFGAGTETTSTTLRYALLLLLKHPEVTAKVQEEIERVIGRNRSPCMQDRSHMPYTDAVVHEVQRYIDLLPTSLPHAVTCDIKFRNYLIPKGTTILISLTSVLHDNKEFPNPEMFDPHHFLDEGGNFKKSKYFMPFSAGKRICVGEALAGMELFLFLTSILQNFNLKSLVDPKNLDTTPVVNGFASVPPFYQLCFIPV
Summary of the method: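 CYP2C9 activity was measured with a P450-Glo proluciferin substrate. Enzyme–substrate mix was held with compound for 10 min at room temperature, then NADPH regeneration solution was added for 1 h at 37C. Luciferin product was read as luminescence.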

[9] = Caspase-3/7 induction in HepG2 cells by small molecules, qHTS assay (AID 1346978); conditions: HepG2 caspase-3/7 activation, Caspase-Glo luminescence, 17 h; series mostly up to 92.4 µM; also: nearly all actives have a fitted effect of over 15% in size
Summary of the method: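 Wild-type HepG2 cells (2,000/well) were settled 5 h at 37 C, 5% CO2, then exposed to compounds in DMSO for 17 h. Caspase-3/7 activity was read by luminescence 30 min after adding Caspase-Glo 3/7 reagent at room temperature.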

[10] = target: Nuclear receptor subfamily 1 group I member 2 (Homo sapiens) (UniProt O75469); assay: CYP3A4 induction through human pregnane X receptor (PXR) by small molecules, qHTS assay (AID 1346984); conditions: DPX-2 HepG2 PXR, CYP3A4-luciferin luminescence, 24 h; series mostly up to 46.1 µM; also: nearly all actives have a fitted effect of over 40% in size
Summary of the method: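 Luminescence readout: luciferase signal after One-Glo (30 min, room temperature), following 3 h at 37C with 3uM final Luciferin-IPA P450 substrate. Cells were DPX-2 (HepG2, PXR/CYP3A4-luc co-transfected) dosed for 24 h.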

[11] = target: Voltage-gated inwardly rectifying potassium channel KCNH2 (Homo sapiens) (UniProt Q12809); assay: Human Ether-a-go-go-Related Gene (hERG) channel small molecule antagonists: fluorescence cell-based qHTS assay (AID 1671200); conditions: hERG-U2OS cells, FluxOR thallium flux fluorescence; series mostly up to 76.8 µM; also: nearly all actives have a fitted effect of over 50% in size
Chain of UniProt Q12809 (Q12809 whole entry, looked up): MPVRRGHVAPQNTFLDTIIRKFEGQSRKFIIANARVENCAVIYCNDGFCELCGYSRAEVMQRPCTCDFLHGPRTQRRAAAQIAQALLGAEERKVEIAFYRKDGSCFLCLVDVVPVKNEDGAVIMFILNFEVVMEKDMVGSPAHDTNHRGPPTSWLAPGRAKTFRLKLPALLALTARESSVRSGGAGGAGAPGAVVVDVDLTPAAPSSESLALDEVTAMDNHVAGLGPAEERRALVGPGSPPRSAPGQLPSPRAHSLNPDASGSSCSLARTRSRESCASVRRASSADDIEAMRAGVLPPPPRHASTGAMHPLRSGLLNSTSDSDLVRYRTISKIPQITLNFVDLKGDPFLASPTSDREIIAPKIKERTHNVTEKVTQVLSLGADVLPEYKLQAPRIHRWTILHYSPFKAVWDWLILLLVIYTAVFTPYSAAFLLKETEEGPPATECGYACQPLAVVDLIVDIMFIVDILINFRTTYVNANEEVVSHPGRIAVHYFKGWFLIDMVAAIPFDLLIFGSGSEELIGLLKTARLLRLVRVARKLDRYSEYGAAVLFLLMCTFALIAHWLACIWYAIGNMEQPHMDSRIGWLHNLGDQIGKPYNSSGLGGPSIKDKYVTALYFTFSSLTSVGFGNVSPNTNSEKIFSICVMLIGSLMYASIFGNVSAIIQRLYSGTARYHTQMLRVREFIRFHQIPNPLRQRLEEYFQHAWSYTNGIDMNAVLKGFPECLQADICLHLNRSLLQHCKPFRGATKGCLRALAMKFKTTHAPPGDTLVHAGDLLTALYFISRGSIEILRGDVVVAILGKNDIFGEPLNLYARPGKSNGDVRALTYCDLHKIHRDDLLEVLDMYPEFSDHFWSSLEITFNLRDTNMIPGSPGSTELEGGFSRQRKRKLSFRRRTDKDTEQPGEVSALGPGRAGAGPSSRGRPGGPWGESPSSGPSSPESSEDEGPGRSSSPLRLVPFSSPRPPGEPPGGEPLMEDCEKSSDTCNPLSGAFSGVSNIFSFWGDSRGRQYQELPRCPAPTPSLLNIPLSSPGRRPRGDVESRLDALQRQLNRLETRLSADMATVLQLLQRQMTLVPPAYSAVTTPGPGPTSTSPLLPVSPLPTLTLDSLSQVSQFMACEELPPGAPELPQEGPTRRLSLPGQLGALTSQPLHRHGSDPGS
Summary of the method: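 hERG-U2OS cells plated overnight at 37 C, loaded with FluxOR II dye 1 h at RT in dark; after 10 min, thallium stimulus added. Fluorescence (480/540 nm) read kinetically for 2 min at 1 s intervals.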

[12] = target: Cytochrome P450 3A4 (Homo sapiens) (UniProt P08684); assay: Cytochrome P450 Family 3 Subfamily A Member 4 (CYP3A4) small molecule antagonists: luciferase reporter qHTS assay (AID 1671201); conditions: P450-Glo CYP3A4 enzyme, luciferin luminescence, 1 h; series mostly up to 115 µM; also: nearly all actives have a fitted effect of over 50% in size
Chain of UniProt P08684 (P08684 whole entry, looked up): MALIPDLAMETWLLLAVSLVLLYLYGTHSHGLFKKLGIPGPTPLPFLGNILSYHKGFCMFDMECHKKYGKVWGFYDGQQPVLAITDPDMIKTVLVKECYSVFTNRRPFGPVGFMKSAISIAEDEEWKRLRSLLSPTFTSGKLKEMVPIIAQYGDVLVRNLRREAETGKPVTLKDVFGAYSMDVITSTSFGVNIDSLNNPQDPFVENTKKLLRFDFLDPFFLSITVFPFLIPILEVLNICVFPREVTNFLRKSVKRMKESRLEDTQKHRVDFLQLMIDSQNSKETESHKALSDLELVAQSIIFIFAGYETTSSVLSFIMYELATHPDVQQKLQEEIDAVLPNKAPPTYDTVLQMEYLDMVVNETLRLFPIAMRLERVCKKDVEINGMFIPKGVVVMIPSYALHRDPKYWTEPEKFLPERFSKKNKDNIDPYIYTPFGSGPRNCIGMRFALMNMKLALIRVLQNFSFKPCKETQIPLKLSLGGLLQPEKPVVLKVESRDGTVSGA
Summary of the method: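 P450-Glo CYP3A4 luminescent assay: compounds preincubated 10 min at room temperature with enzyme and proluciferin substrate, NADPH regeneration added, 1 h room-temperature reaction, stopped with luciferin detection reagent; luminescence read after 20 min. Ketoconazole positive control.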

[13] = Caspase-3/7 induction in CHO-K1 cells by small molecules, qHTS cell viability counter screen (AID 1346979); conditions: CellTiter-Fluor fluorescence, 17 h; series mostly up to 92.4 µM; also: nearly all actives have a fitted effect of over 35% in size
Summary of the method: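 Wild-type CHO-K1 cells (1,500/well) treated with compound after 5 h plating; after 16 h at 37C, viability read as CellTiter-Fluor fluorescence following 1 h reagent incubation, in the same wells as the caspase read.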

[14] = activity, negative = inhibition: at 76.8 µM (top of the series) unless noted
Potency is read from the fitted curve at half-maximal effect; tags tell the direction and shape of the fitted curve or compound fluorescence and quenching.

## O=S(=O)(O)c1ccc2nc(-c3ccccc3)[nH]c2c1
[1]; at 35.3 µM (top of the series)
  activity, negative = inhibition: inconclusive: -34.1%
[1]; at 76.8 µM (top of the series)
  activity, negative = inhibition: inconclusive: -49.3%
[2]
  Potency: active: 21.4 µM and active: 13.8 µM
[3]
  Potency: active: 26.9 µM and active: 19.5 µM

## CCCC1O[C@@H]2C[C@H]3[C@@H]4CCC5=CC(=O)C=C[C@]5(C)[C@H]4[C@@H](O)C[C@]3(C)[C@]2(C(=O)CO)O1 (stereo partly drawn)
[1]; [14]
  Potency: inconclusive: 24.6 µM [fluorescent, partial curve] and inconclusive: 19.5 µM [fluorescent, partial curve]
[4]
  Potency: inconclusive: 44.7 µM [cytotoxic, partial curve] and inconclusive: 68.6 µM [cytotoxic, single point]
[5]
  Potency: inconclusive: 68.7 µM [cytotoxic, single point] and inconclusive: 77 µM [cytotoxic, single point]
[2]
  Potency: inconclusive: 50.3 µM [inhibitor, partial curve, poor fit] and inconclusive: 35.6 µM [inhibitor, partial curve]

## CCN(CC)C(=O)c1cc(S(=O)(=O)Cc2ccccc2)c(N2CCC(c3ccccc3)CC2)cc1N(CC)CCN(C)C
[1]; [14]
  Potency: inconclusive: 12.2 µM [rising, partial curve]
[4]
  Potency: active: 13.5 µM
[6]
  Potency: active: 24.1 µM
[7]
  Potency: inconclusive: 31.4 µM [inhibitor, single point]
[8]
  Potency: inconclusive: 24.9 µM [inhibitor, partial curve]

## NCCNc1cccc2ccccc12
[1]; [14]
  activity, negative = inhibition: inconclusive: 1.53%
[4]
  Potency: inconclusive: 59.6 µM [cytotoxic, partial curve]
[9]
  Potency: inconclusive: 68.5 µM [activator] and inconclusive: 66.9 µM [activator, single point]
[5]
  Potency: inconclusive: 68.5 µM [cytotoxic, partial curve, poor fit] and inconclusive: 66.9 µM [cytotoxic]
[10]
  Potency: inconclusive: 31.6 µM [activator, single point]
[2]
  Potency: active: 5.02 µM and active: 9.79 µM and active: 12.3 µM
[11]
  Potency: inconclusive: 24.5 µM [inhibitor, partial curve] and inconclusive: 47.8 µM [inhibitor, partial curve]
[12]
  Potency: inconclusive: 69.3 µM [inhibitor, partial curve]

## CCC(C)N(C)C(=O)c1cc2ccccc2c(-c2ccccc2Cl)n1 (stereo not drawn)
[1]; [14]
  activity, negative = inhibition: inconclusive: 9.54% [at 35.3 µM]
[4]
  Potency: inconclusive: 44.4 µM [cytotoxic, single point]
[13]
  Potency: inconclusive: 35.2 µM [cytotoxic, single point]
[5]
  Potency: inconclusive: 44.4 µM [cytotoxic, single point]
[7]
  Potency: inconclusive: 51.5 µM [inhibitor, single point]
[8]
  Potency: active: 20.5 µM
[3]
  Potency: inactive
[12]
  Potency: inconclusive: 23 µM [inhibitor, partial curve]

## Cc1cc(O)c2c(c1)C(=O)c1cc(O)cc(O)c1C2=O
[1]; [14]
  Potency: inconclusive: 43.6 µM [fluorescent, partial curve]
[4]
  Potency: inconclusive: 21.7 µM [cytotoxic, full curve]
[13]
  Potency: inconclusive: 33.6 µM [cytotoxic, single point]
[3]
  Potency: inconclusive: 8.74 µM [inhibitor, full curve]
[12]
  Potency: active: 27.6 µM and active: 22.4 µM

## C/C=C1/C(=O)C[C@H]2[C@@H]3CCC4=CC(=O)CC[C@]4(C)[C@H]3CC[C@]12C
[1]; [14]
  activity, negative = inhibition: inconclusive: -10.1%
[4]
  Potency: inconclusive: 68.4 µM [cytotoxic, single point]
[9]
  Potency: inconclusive: 68.4 µM [activator, single point]
[5]
  Potency: inconclusive: 54.3 µM [cytotoxic, partial curve]
[2]
  Potency: inactive
[8]
  Potency: active: 31.6 µM
[3]
  Potency: active: 39.8 µM
[11]
  Potency: inconclusive: 24.5 µM [inhibitor, full curve]

## O=C(O)c1cc(O)c2c(c1)C(=O)c1cccc(O)c1C2=O
[1]; [14]
  Potency: inconclusive: 17.9 µM [fluorescent]
[4]
  Potency: active: 25.1 µM
[6]
  Potency: inactive
[5]
  Potency: active: 44.6 µM
[8]
  Potency: inconclusive: 25.9 µM [inhibitor, full curve, poor fit]

## CC(=O)OC(OC(C)=O)c1ccc([N+](=O)[O-])o1
[1]; [14]
  Potency: inconclusive: 55.9 µM [single point]
[4]
  Potency: active: 49.4 µM
[9]
  Potency: inconclusive: 24.8 µM [activator, single point]
[5]
  Potency: active: 62.2 µM
[2]
  Potency: inconclusive: 32.3 µM [inhibitor, partial curve]
[8]
  Potency: inconclusive: 40.6 µM [inhibitor, partial curve]
